Reference: the supplement of paper PMC11417369
The other results are listed elsewhere or left out.

System: PfSIP2 AP2 domain 1 (GST-tagged)
Assay: gcPBM binding intensity (ln(normalized median fluorescence intensity)); higher = stronger DNA binding
Outline: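 Binding intensity values are the highest Masliner-normalised natural-log median intensity among replicate spots of either probe orientation. The binding step lasted 1 h in 1× PBS with 1% milk, 0.2 mg/ml BSA, 0.5% salmon testes DNA and 0.03% Triton X-100, using GST-tagged P. falciparum DNA-binding domains expressed in E. coli on an Agilent 4 × 180k array of primer-extended double-stranded 36-bp intergenic genomic probes plus negative controls. Alexa488 anti-GST antibody and a 488 nm scan detected bound protein.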

First: CAATTATTGTAATGCATGCACTGAATATAAAAAGAA
Second: TTTATATGTATTAAGTGTACACATATAATGTATTTT [XGTACX_site16]
The “gcPBM binding intensity (ln)” value of the first is higher: 9.18 for the first, 7.35 for the second.

Going from “AAATTAATGTATATGTGAAGCAAGGGATGCGGCAGA [CACACA_negctrl_site406]” to “ATATATATATATATATAATATATAATATATATATAT [CACACA_negctrl_site96]”, the “gcPBM binding intensity (ln)” value rises from 7.48 to 9.43.

First: TTCATATTCGATAAAGTGCATTAATTTTATTTATCA
Second: TCCAATTGTTCTAGTGTGCACATAAATAAATCTCAT
The “gcPBM binding intensity (ln)” value of the first is lower: 8.36 for the first, 9.07 for the second.

First: AATACTTTTTTCTGTACACACTTGATTTACTATAAT [CACACA_site5544]
Second: AAGAGTTAAAAAAATACACACATATAGATTTTTTTA [CACACA_site7018]
The “gcPBM binding intensity (ln)” value of the first is higher: 7.29 for the first, 6.74 for the second.

Going from “ATAAATAAAAAAGAAAGAAAGAAAGAAACAAACAAA [CACACA_negctrl_site1198]” to “TATTAATGCAAATGTTATATGTGCATACATAAATGT [CACACA_negctrl_site790]”, the “gcPBM binding intensity (ln)” value rises from 6.74 to 7.14.

Going from “TATTACATACATATCTGTACATATATTAATGCACAA [XGTACX_site3315]” to “AAAAATATTAAAAAAGGTACACAGCATATCTCTTTT [XGTACX_site65]”, the “gcPBM binding intensity (ln)” value falls from 8.49 to 6.85.

Going from “TATATCTGTAAATGCACACATATGTGGATATACTTA [CACACA_site5013]” to “GTTCATTCATTTTAATGTACAAATTTAACTTTTTCT [XGTACX_site680]”, the “gcPBM binding intensity (ln)” value falls from 7.2 to 6.91.

Going from “TATAAATATAAATACACACACATATAGATTATAGAT [CACACA_site6429]” to “TGCTACATTCTATGTACACACATATACATATATATA [CACACA_site893]”, the “gcPBM binding intensity (ln)” value rises from 7.02 to 7.35.

Going from “TCTAATAATATATACACACACATATATATTTATATA [CACACA_site2032]” to “TAAGACATGATATATACACACCTTGTTTTAATTTTC [CACACA_site5282]”, the “gcPBM binding intensity (ln)” value falls from 6.89 to 6.65.

First: AGAAATTATAAATACCTACACACTTATCAAAATAAA [CACACA_site2264]
Second: GATAAAGTAAAAATATGTACATATATATTTTAAGTT [XGTACX_site6439]
The “gcPBM binding intensity (ln)” value of the first is lower: 6.72 for the first, 7.05 for the second.

First: TCTTTTCAATTATCCTATATTCTTTTATTTTTAATT [GTGCAC_negctrl_site326]
Second: CATACACCCATACATACACACATACATACACCCATA [CACACA_site5124]
The “gcPBM binding intensity (ln)” value of the first is lower: 7.12 for the first, 7.3 for the second.

Compared with “AACAAATAAAGCTATGACATGTTAAAATTGTTTCAC [XGTACX_negctrl_site67]”, “ATATCTAAATATATTACACACAGATATCTTCCTATA [CACACA_site3701]” is higher in “gcPBM binding intensity (ln)” value: 6.8 for the first, 6.93 for the second.

In the case of “ATAAAGGAATTTTATACACACAACATATAAATATAT [CACACA_site7365]”, the “gcPBM binding intensity (ln)” value was 6.97.
